For 172 sequences, binding signal results are on record in article PMC6212790.

This is one part of the list. At the low end of the ranking the order means little.

For the experiment, the target named is T1, GST-Rok (full length) (UniProt O34857).
T1 sequence: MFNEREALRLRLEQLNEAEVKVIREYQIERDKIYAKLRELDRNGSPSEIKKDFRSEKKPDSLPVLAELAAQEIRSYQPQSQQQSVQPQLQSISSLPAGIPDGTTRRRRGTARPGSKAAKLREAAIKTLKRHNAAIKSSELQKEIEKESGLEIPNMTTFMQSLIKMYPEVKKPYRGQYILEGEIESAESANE
Put plainly: protein binding microarray.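 Note: rank score from −0.5 (least bound) to 0.5 (best bound).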 Particulars: Rok is a gene silencer of Bacillus subtilis; high values mean tight binding; most listed sequences are background and not binding sites; double strand, one strand shown.
CGAAGCCG came in with a binding signal of -0.291 E-score.

For the sequence TCTGCGAA, the binding signal is 0.0783 E-score.

In turn, AAAATTGG returned a binding signal of 0.123 E-score.

Take ACACATGT: the binding signal was -0.0201 E-score.

GAATTAAA: the binding signal came to 0.116 E-score.

Regarding GCCAACGA, the binding signal is -0.11 E-score.

As for GAAAAAAC, the binding signal was determined as 0.0889 E-score.

Sequence TAGCCCTA came in with a binding signal of 0.0605 E-score.

In turn, CAAGTCCG registered a binding signal of -0.103 E-score.

CGACCATA registered a binding signal of 0.0133 E-score.

Sequence ATATGGCG returned a binding signal of 0.0102 E-score.

AAAACGTC: the binding signal was -0.00524 E-score.

For the sequence AGGGCATA, the binding signal is -0.0488 E-score.

Consider AAATTAGA, for which the binding signal came to 0.211 E-score.

In the case of GAAGTGGA, the binding signal was determined as 0.00673 E-score.

AGCTAGCC yielded a binding signal of -0.0428 E-score.

As to AGAGCTAT, the binding signal turned out to be 0.179 E-score.

On to CTTAGTTA, for which the binding signal amounted to 0.18 E-score.

For the sequence GTTACTAA, the binding signal came to 0.283 E-score.

For the sequence AATCGTCA, the binding signal is -0.0499 E-score.

In turn, GAATACCC displayed a binding signal of -0.185 E-score.

As to CTTAATTC, the binding signal amounted to 0.139 E-score.

As to TAGCATAA, the binding signal worked out at 0.229 E-score.

On to GCTGATCA, for which the binding signal is -0.0531 E-score.

On to CCGGAGAA, for which the binding signal is -0.186 E-score.

For the sequence GGAGACGA, the binding signal was -0.0426 E-score.

Consider AGGGGCCA, for which the binding signal is -0.323 E-score.

AACACAAA yielded a binding signal of 0.216 E-score.

CGCTGACG came in with a binding signal of -0.282 E-score.

AAGAGATA had a binding signal of 0.185 E-score.

In turn, ACGCTCCG returned a binding signal of -0.254 E-score.

CATCGAGG gave a binding signal of -0.14 E-score.

GACGAACA returned a binding signal of 0.0789 E-score.

As for TATCTGGA, the binding signal was 0.209 E-score.

Take ATGCAGAG: the binding signal is -0.0627 E-score.

In turn, AGTGGGTC showed a binding signal of -0.185 E-score.

Consider GGCGAGAA, for which the binding signal was -0.0302 E-score.

Consider CCTTCTCG, for which the binding signal was -0.236 E-score.

Consider CGGCAACC, for which the binding signal was -0.196 E-score.

Turning to ACTTGTAT, the binding signal was determined as 0.236 E-score.

GAACATCC had a binding signal of -0.0496 E-score.

Take AAGGCATT: the binding signal came to 0.0267 E-score.

AATGCTAA came in with a binding signal of 0.214 E-score.

In the case of CGTTGAGC, the binding signal came out at 0.109 E-score.

Turning to TAGCACGA, the binding signal came out at 0.108 E-score.

For AATTTCGC, the binding signal is 0.13 E-score.

CAACAGTG returned a binding signal of -0.00277 E-score.

In the case of CCGTATAA, the binding signal came out at 0.112 E-score.

On to CTAAGTTA, for which the binding signal was determined as 0.228 E-score.

For the sequence CTTACTCC, the binding signal was -0.193 E-score.

Sequence CCTAAGCA came in with a binding signal of 0.00258 E-score.

As for GATCAGTA, the binding signal worked out at 0.191 E-score.

The sequence AGCCCCAG yielded a binding signal of -0.362 E-score.

GAAGTACA: the binding signal stood at 0.199 E-score.

In turn, AGAAGGAA yielded a binding signal of -0.104 E-score.

AAAGATCA registered a binding signal of 0.133 E-score.

The sequence AGGGAACC yielded a binding signal of -0.203 E-score.

In the case of CGTTTTGC, the binding signal came to 0.106 E-score.

CATCGTAC came in with a binding signal of 0.0424 E-score.

AAACTTTG showed a binding signal of 0.117 E-score.

On to AATCTCTG, for which the binding signal worked out at 0.153 E-score.

CTTTACGC showed a binding signal of 0.177 E-score.

In the case of GACTTTGA, the binding signal was -0.118 E-score.

As for CGCCAAGA, the binding signal stood at 0.0245 E-score.

Sequence CGTGTGAG registered a binding signal of -0.0916 E-score.

In the case of CAAGTAGC, the binding signal is 0.119 E-score.

AGACTATG yielded a binding signal of 0.0447 E-score.

For ATGGGGCG, the binding signal is -0.197 E-score.

AAACCCAG: the binding signal worked out at 0.0583 E-score.

In turn, CGACACCG had a binding signal of -0.245 E-score.

The sequence GATTATGA had a binding signal of -0.00173 E-score.

For AGTAGTAA, the binding signal was 0.384 E-score.

In the case of CCCGCACC, the binding signal was -0.123 E-score.

CGCCTGTC: the binding signal was -0.179 E-score.

As to TGAAGAAA, the binding signal is -0.102 E-score.

Consider ATTTATGA, for which the binding signal stood at 0.197 E-score.

As for GTCGCGCA, the binding signal is -0.0438 E-score.

As for GCTACTGA, the binding signal turned out to be 0.168 E-score.

Turning to GACCTGAC, the binding signal is -0.16 E-score.

As to AAACTGTC, the binding signal is -0.0352 E-score.

AACAGAAT yielded a binding signal of 0.0286 E-score.

On to ATTTGTTC, for which the binding signal came out at 0.232 E-score.

The sequence TTAGAAAA registered a binding signal of 0.185 E-score.

CCCCACGG registered a binding signal of -0.496 E-score.

In turn, ACAACCAA yielded a binding signal of 0.225 E-score.

Regarding CCGAGCAC, the binding signal was -0.203 E-score.

The sequence CTATAGTC displayed a binding signal of 0.096 E-score.

In the case of CGCTCTTC, the binding signal was -0.279 E-score.

For the sequence GGCACACA, the binding signal was -0.24 E-score.

AGCCGGAG had a binding signal of -0.328 E-score.

TATCCAAA registered a binding signal of 0.0834 E-score.

In turn, ATTGGAGG returned a binding signal of -0.0695 E-score.

ACTAAGGA: the binding signal was 0.193 E-score.

Consider AGTTCGCA, for which the binding signal worked out at 0.0432 E-score.

On to ACTGATGC, for which the binding signal was -0.0827 E-score.

Sequence TATAGCGA showed a binding signal of 0.178 E-score.

With CTAACTAG, the binding signal is 0.276 E-score.

The sequence AAATGGCC showed a binding signal of 0.0934 E-score.

The sequence ACCGGCAT showed a binding signal of -0.0275 E-score.

As for CACCTCTG, the binding signal was -0.00886 E-score.

The sequence AATTATAA displayed a binding signal of 0.361 E-score.

With ATTACGTA, the binding signal worked out at 0.38 E-score.

Sequence AATGCTAG yielded a binding signal of 0.163 E-score.

Regarding AACTTAAT, the binding signal is 0.218 E-score.

Take CGCGGCAG: the binding signal is -0.24 E-score.

GCAACGTA registered a binding signal of 0.151 E-score.

In the case of AAGCCTTC, the binding signal was -0.293 E-score.

Regarding AGGCTGGC, the binding signal is -0.454 E-score.

With CAAGATCC, the binding signal is -0.155 E-score.

Consider CCTAGTAA, for which the binding signal amounted to 0.256 E-score.

Consider ACACAGCA, for which the binding signal was found to be 0.0417 E-score.

GTAAGATA registered a binding signal of 0.233 E-score.

As for ACCTAAGA, the binding signal was determined as 0.015 E-score.

For the sequence GGTTGTTA, the binding signal was determined as 0.0141 E-score.

Consider ACATGACT, for which the binding signal turned out to be 0.13 E-score.

As for CATGATCA, the binding signal was 0.0282 E-score.

Regarding AGCCGGTC, the binding signal is -0.186 E-score.

In the case of GCACACTA, the binding signal was determined as 0.109 E-score.

The sequence ACACGAGC returned a binding signal of -0.0679 E-score.

On to CGGACGCA, for which the binding signal was -0.0715 E-score.

For ACCTCCAT, the binding signal came out at 0.0858 E-score.

Take GCTCTGAA: the binding signal is -0.165 E-score.

In turn, CGCATAGC gave a binding signal of -0.117 E-score.

In turn, CATAGTAA had a binding signal of 0.271 E-score.

Sequence AGGTGCCG had a binding signal of -0.147 E-score.

Sequence AGTGGACC returned a binding signal of -0.0716 E-score.

CGATATAG had a binding signal of 0.191 E-score.

Sequence AGAAGGTC displayed a binding signal of -0.0225 E-score.

Sequence AGTTAATG gave a binding signal of 0.176 E-score.

On to ATATGCAA, for which the binding signal is 0.333 E-score.

With ATGGTGCA, the binding signal was -0.0265 E-score.

ACTCGTGG showed a binding signal of -0.173 E-score.

With GATCCCCA, the binding signal is -0.34 E-score.

For CTCTCAAA, the binding signal was -0.134 E-score.

ATCGCATA: the binding signal is 0.205 E-score.

AAGAGAAT displayed a binding signal of 0.113 E-score.

In the case of CGACTTTC, the binding signal was 0.0668 E-score.

For GAGTAAAC, the binding signal came to 0.000344 E-score.

AACCAGCC gave a binding signal of -0.124 E-score.

In turn, TGCATAAA showed a binding signal of 0.169 E-score.

AGTGCCTC had a binding signal of -0.273 E-score.

In turn, CAATTTAA displayed a binding signal of 0.152 E-score.

In the case of AGCGGGGA, the binding signal is -0.076 E-score.

GTTACGCA registered a binding signal of 0.029 E-score.

CCCCCAAG displayed a binding signal of -0.373 E-score.

CCACATCA gave a binding signal of 0.0395 E-score.

Take CGGCTGCC: the binding signal was -0.291 E-score.

ACTTCTCC yielded a binding signal of 0.00788 E-score.

As for AACGGGGC, the binding signal was -0.148 E-score.

With AGCATCAT, the binding signal came to 0.0173 E-score.

CCGCGGTA registered a binding signal of -0.0227 E-score.

CGTGCTCC: the binding signal was -0.286 E-score.

AGTCCGGA: the binding signal is -0.115 E-score.

With CGACCAGA, the binding signal came out at 0.0144 E-score.

Consider AAATCAGG, for which the binding signal stood at 0.149 E-score.

Regarding GACGATAA, the binding signal came to 0.0346 E-score.

AACAGCAT yielded a binding signal of 0.0333 E-score.

CGCACCAA displayed a binding signal of 0.0606 E-score.

GGATTTGA showed a binding signal of -0.0757 E-score.

For AGCGCGCT, the binding signal was 0.0465 E-score.

CCCACCAG showed a binding signal of -0.326 E-score.

The sequence ATGTCTCA showed a binding signal of -0.0485 E-score.

For the sequence ACAGGACG, the binding signal is -0.0527 E-score.

Consider GCTGCGCA, for which the binding signal is -0.146 E-score.

In the case of GTATACAA, the binding signal stood at 0.308 E-score.

Consider ACCCTAAG, for which the binding signal is -0.185 E-score.

The sequence CCCATGTA returned a binding signal of 0.12 E-score.

As to ACTCGGGG, the binding signal is -0.227 E-score.

As to AATCTCGT, the binding signal came to 0.133 E-score.

AAGAGAGG: the binding signal was -0.35 E-score.

Take GTGCCGAA: the binding signal was -0.154 E-score.

Consider AGCCGTCG, for which the binding signal was -0.429 E-score.
